In patent US6613534B2, “MAP-2 as a determinant of metastatic potential” (Wake Forest University Health Sciences, priority 2001, dated 2003):

Test system: TYRP1 mRNA in SK-MEL-19 and SK-MEL-23 cl.22 cells
Test: Northern blot of polyA+ RNA for TYRP1 mRNA in HMBA-treated metastatic melanoma cells
Conditions: FIG. 4A

`CC(=O)NCCCCCCNC(C)=O` [HMBA, hexamethylene bisacetamide] was tested. Which “TYRP1 mRNA (melanocyte differentiation marker)” value did it give?
The value was “down-regulation”.
